Laboratory results as given in PubChem BioAssay AID1745853 (National Center for Advancing Translational Sciences (NCATS), 2022).
Several values for one entry are separate records, joined by “and”; a condition that tells them apart may be missing. Identical values can stand only once. The list shows a part of the results. Shown are side measurements of this screen, not its main read-out; they come without a call.

Key:
Assay in all cases: Primary Screen for Target Class Profiling of Small Molecule Inhibitors of Methyltransferases
[1] = biological target: Glycine N-methyltransferase (Homo sapiens) (UniProt Q14749); details: purified enzyme, MTase-Glo SAH luminescence; measured here: GNMT inhibition; at 40 µM; stronger effect = lower value
In short: (§1)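 Each enzyme was reacted with SAM and its substrate, with compounds tested once at 40 uM; SAH formed was read by MTase-Glo luminescence.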

[2] = biological target: Guanidinoacetate N-methyltransferase (Homo sapiens) (UniProt Q14353); details: purified enzyme, MTase-Glo SAH luminescence; measured here: GAMT inhibition; at 40 µM; stronger effect = lower value
In short: as §1

[3] = biological target: Histamine N-methyltransferase (Homo sapiens) (UniProt P50135); details: purified enzyme, MTase-Glo SAH luminescence; measured here: HNMT inhibition; at 40 µM; stronger effect = lower value
In short: as §1

[4] = biological target: Nicotinamide N-methyltransferase (Homo sapiens) (UniProt P40261); details: purified enzyme, MTase-Glo SAH luminescence; measured here: NNMT inhibition; at 40 µM; stronger effect = lower value
In short: as §1

[5] = biological target: Phenylethanolamine N-methyltransferase (Homo sapiens) (UniProt P11086); details: purified enzyme, MTase-Glo SAH luminescence; measured here: PNMT inhibition; at 40 µM; stronger effect = lower value
In short: as §1
% is set by controls: 0 for no effect and ±100 for the full control effect.

In the case of `N[C@H]1C[C@H]1c1ccc(-c2cccc(O)c2)cc1`, the activity change, negative = inhibition [1] is reported as 2.75% and -0.147%, the activity change, negative = inhibition [2] is reported as 6.42% and -6.74% and the activity change, negative = inhibition [3] is reported as 5.84% and 6.52%. The activity change, negative = inhibition [4] was -6.39% and -11.1% and the activity change, negative = inhibition [5] was 3.71% and 2.5%.
`COc1ccc(-c2cc3n(n2)CC(C)(C(=O)NCc2ccccc2OC)N(c2ccc(C(C)C)cc2)C3=O)cc1` (stereo not drawn) showed an activity change, negative = inhibition [1] of -3.86%, an activity change, negative = inhibition [2] of 0.147% and an activity change, negative = inhibition [3] of -4.22%. It also gave an activity change, negative = inhibition [4] of -6.5% and an activity change, negative = inhibition [5] of -8.6%.
Molecule `Cc1cc(C(=O)N2CCCC3(C2)Nc2cccnc2NC3=NCc2ccccc2)nn1C` (stereo not drawn) has an activity change, negative = inhibition [1] of -4.09%, an activity change, negative = inhibition [2] of -3.29% and an activity change, negative = inhibition [3] of -2.99%. It also gave an activity change, negative = inhibition [4] of -2.08% and an activity change, negative = inhibition [5] of 5.11%.
Molecule `CC(C)CNC(=O)c1ccc2c(=O)n(Cc3ccccc3)c3nn(Cc4ccccc4Cl)c(=O)n3c2c1` has an activity change, negative = inhibition [1] of 5.54%, an activity change, negative = inhibition [2] of 0% and an activity change, negative = inhibition [3] of 9.74%. For the same molecule, the activity change, negative = inhibition [4] was 8.41% and the activity change, negative = inhibition [5] was 7.72%.
For `COc1ccc2c(c1)C[C@H](C(=O)Nc1ccc(-c3cn[nH]c3)cc1OCCN(C)C)CO2`, the activity change, negative = inhibition [1] was -0.144%, the activity change, negative = inhibition [2] was -3.99% and the activity change, negative = inhibition [3] was -54.8%. The activity change, negative = inhibition [4] was -16.1% and the activity change, negative = inhibition [5] was -10.7%.
Work on `CC1(C)CCCC2(C)C(CO)C(CO)=CCC12` (stereo not drawn) yielded an activity change, negative = inhibition [1] of 1.54%, an activity change, negative = inhibition [2] of -1.14% and an activity change, negative = inhibition [3] of 13.2%. The activity change, negative = inhibition [4] was -16.2% and the activity change, negative = inhibition [5] was -11.3%.
For `CCC(NS(=O)(=O)c1cc(-n2cccn2)ccc1OC)C1CC(O)C1` (stereo not drawn), the activity change, negative = inhibition [1] was -0.777%, the activity change, negative = inhibition [2] was -0.967% and the activity change, negative = inhibition [3] was 1.3%. The activity change, negative = inhibition [4] was -3.48% and the activity change, negative = inhibition [5] was 1.3%.
Work on `CCn1nc(C)c(-c2cc(C(=O)N3CCCCCCNC(=O)CC3)no2)c1C` yielded an activity change, negative = inhibition [1] of -2.84%, an activity change, negative = inhibition [2] of 1.74% and an activity change, negative = inhibition [3] of 0.732%. The activity change, negative = inhibition [4] was -1.35% and the activity change, negative = inhibition [5] was -17.7%.
`O=C1CN(Cc2c(F)cccc2Cl)S(=O)(=O)c2ccccc2N1Cc1ccc(Cl)cc1` was tested, and the activity change, negative = inhibition [1] was 6.41%, the activity change, negative = inhibition [2] was 0.038% and the activity change, negative = inhibition [3] was 3.55%. It also gave an activity change, negative = inhibition [4] of -0.615% and an activity change, negative = inhibition [5] of 2.12%.
`Cn1cccc1-c1noc(C2CCN(C(=O)CCCc3ccccc3)C2)n1` (stereo not drawn) gave an activity change, negative = inhibition [1] of -4.36%, an activity change, negative = inhibition [2] of -1.91% and an activity change, negative = inhibition [3] of 0.467%. The activity change, negative = inhibition [4] was -6.49% and the activity change, negative = inhibition [5] was -1.28%.
`OCCOCCn1cnc(-c2ccccc2)c1-c1ccccc1Cn1cccn1` showed an activity change, negative = inhibition [1] of -0.958%, an activity change, negative = inhibition [2] of 0.084% and an activity change, negative = inhibition [3] of 0.193%. It also gave an activity change, negative = inhibition [4] of -3.46% and an activity change, negative = inhibition [5] of -0.105%.
`CCc1cc2c(cc3n2CC(C)(C(=O)NC2CCCCCC2)N(c2ccccc2C)C3=O)s1` (stereo not drawn) gave an activity change, negative = inhibition [1] of 7.94%, an activity change, negative = inhibition [2] of 2.18% and an activity change, negative = inhibition [3] of 7.14%. The activity change, negative = inhibition [4] was 13.4% and the activity change, negative = inhibition [5] was 3.93%.
In the case of `CC1CCCN(C(=O)Cn2c(=O)oc3cc(S(=O)(=O)NCc4ccccc4)ccc32)C1` (stereo not drawn), the activity change, negative = inhibition [1] is reported as 2.14%, the activity change, negative = inhibition [2] is reported as 1.9% and the activity change, negative = inhibition [3] is reported as 2.03%. For the same molecule, the activity change, negative = inhibition [4] was -3.97% and the activity change, negative = inhibition [5] was -0.395%.
Work on `c1ccc(-c2[nH]ncc2-c2ccnc3ccccc23)nc1` yielded an activity change, negative = inhibition [2] of 8.01%, an activity change, negative = inhibition [4] of -11.2% and an activity change, negative = inhibition [5] of 4.82%.
For `COc1ccc(C(=O)Cn2nc3n(CC(C)C)c(=O)c4ccccc4n3c2=O)cc1`, the activity change, negative = inhibition [1] was 1.28%, the activity change, negative = inhibition [2] was 0.455% and the activity change, negative = inhibition [3] was 3.9%. For the same molecule, the activity change, negative = inhibition [4] was 4.67% and the activity change, negative = inhibition [5] was 5.05%.
`CCc1nc(-c2c3n(c(=O)n(CC(=O)OC)c2=O)CCCC3)no1` gave an activity change, negative = inhibition [1] of 1.32%, an activity change, negative = inhibition [2] of -5.07% and an activity change, negative = inhibition [3] of 0.245%. For the same molecule, the activity change, negative = inhibition [4] was 0.105% and the activity change, negative = inhibition [5] was 3.37%.
`O=C(CCc1cnccn1)N1CCC(CCC(=O)N2CCC(Cc3ccccc3)CC2)CC1` was tested, and the activity change, negative = inhibition [1] was -2.9%, the activity change, negative = inhibition [2] was -0.737% and the activity change, negative = inhibition [3] was -0.974%. It also gave an activity change, negative = inhibition [4] of -3.64% and an activity change, negative = inhibition [5] of -0.045%.
`O=C(c1cccc(OC2CN(CC3CC=CCC3)C2)c1)N1CCCC1` (stereo not drawn) gave an activity change, negative = inhibition [1] of -2.61%, an activity change, negative = inhibition [2] of 1.18% and an activity change, negative = inhibition [3] of -19.1%. The activity change, negative = inhibition [4] was -4.92% and the activity change, negative = inhibition [5] was -2.92%.
With `COc1cccc(CNC(=O)CCc2nnc3n(Cc4ccc(F)cc4)c(=O)c4ccccc4n23)c1` the activity change, negative = inhibition [1] was -14.6%, the activity change, negative = inhibition [2] was 4.81% and the activity change, negative = inhibition [3] was 0.981%. For the same molecule, the activity change, negative = inhibition [4] was -8.18% and the activity change, negative = inhibition [5] was -4.12%.
Molecule `CCn1c(-c2ccccc2)nn(CC(=O)NCc2ccsc2)c1=O` has an activity change, negative = inhibition [1] of -5.12%, an activity change, negative = inhibition [2] of -7.08% and an activity change, negative = inhibition [3] of -2.07%. For the same molecule, the activity change, negative = inhibition [4] was -6.07% and the activity change, negative = inhibition [5] was 1.3%.
`C=C1CC[C@@H]2[C@](C)(CC[C@H](O)[C@@]2(C)CCC=C(C)C)[C@@H]1Cc1c[nH]c2ccccc12` was tested, and the activity change, negative = inhibition [1] was 0%, the activity change, negative = inhibition [2] was -3.02% and the activity change, negative = inhibition [3] was 0.88%. The activity change, negative = inhibition [4] was -16.7% and the activity change, negative = inhibition [5] was 2.65%.
`Cc1ccc(CNC(=O)c2ccc3c(=O)nc4c(-c5ccc(C)cc5)n[nH]n4c3c2)cc1` gave an activity change, negative = inhibition [1] of -14%, an activity change, negative = inhibition [2] of 0% and an activity change, negative = inhibition [3] of -4.14%. It also gave an activity change, negative = inhibition [4] of -5.78% and an activity change, negative = inhibition [5] of -6.85%.
For `CCC(C)NC(=O)c1ccc2c(=O)n(CCC(C)C)c3nn(Cc4ccccc4Cl)c(=O)n3c2c1` (stereo not drawn), the activity change, negative = inhibition [1] was -2.41%, the activity change, negative = inhibition [2] was 2.81% and the activity change, negative = inhibition [3] was 0.897%. For the same molecule, the activity change, negative = inhibition [4] was -2.46% and the activity change, negative = inhibition [5] was -3.7%.
With `CCOC(=O)c1cc2n(n1)CC(C)(C(=O)NC1CCC(C)CC1)N(Cc1ccccc1C)C2=O` (stereo not drawn) the activity change, negative = inhibition [1] was 1.36%, the activity change, negative = inhibition [2] was 0.789% and the activity change, negative = inhibition [3] was -3.82%. It also gave an activity change, negative = inhibition [4] of -2.8% and an activity change, negative = inhibition [5] of -1.37%.
Work on `Cc1ccc(C)c(N2CCN(S(=O)(=O)c3ccc4[nH]c(=O)[nH]c4c3)CC2)c1` yielded an activity change, negative = inhibition [1] of 12.4%, an activity change, negative = inhibition [2] of 0% and an activity change, negative = inhibition [3] of 10.9%. The activity change, negative = inhibition [4] was -1.15% and the activity change, negative = inhibition [5] was 5.49%.
`Cc1ccc(NC(=O)CCc2nnc3n(CCc4ccccc4)c(=O)c4ccccc4n23)cc1C` showed an activity change, negative = inhibition [1] of 4.23%, an activity change, negative = inhibition [2] of 0% and an activity change, negative = inhibition [3] of 9.95%. For the same molecule, the activity change, negative = inhibition [4] was 4.64% and the activity change, negative = inhibition [5] was 1.93%.
`COC(=O)c1ccnc(-c2cc(C(=O)NCCc3ccccc3)ccn2)c1` was tested, and the activity change, negative = inhibition [1] was 4.75%, the activity change, negative = inhibition [2] was 5.71% and the activity change, negative = inhibition [3] was 4.22%. It also gave an activity change, negative = inhibition [4] of -9.77% and an activity change, negative = inhibition [5] of -2.33%.
Molecule `CC(=O)OC/C(=C/C(=O)O)CC[C@@H]1C(CO)=CC[C@@H]2C(C)(C)CCC[C@@]12C` has an activity change, negative = inhibition [1] of 0%, an activity change, negative = inhibition [2] of -3.08% and an activity change, negative = inhibition [3] of 1.84%. The activity change, negative = inhibition [4] was -19% and the activity change, negative = inhibition [5] was -3.4%.
In the case of `NC(=O)c1nc(Nc2ccccc2)sc1NC(=O)C1CCCCC1`, the activity change, negative = inhibition [1] is reported as -4.58%, the activity change, negative = inhibition [2] is reported as -15% and the activity change, negative = inhibition [3] is reported as 1.61%. For the same molecule, the activity change, negative = inhibition [4] was -29.8% and the activity change, negative = inhibition [5] was -5.79%.
In the case of `CCCn1c(=O)c2ccc(C(=O)NC(C)C)cc2n2c(=O)n(CC(=O)c3ccc(Cl)cc3)nc12`, the activity change, negative = inhibition [1] is reported as 2.29%, the activity change, negative = inhibition [2] is reported as 0.673% and the activity change, negative = inhibition [3] is reported as 7.7%. For the same molecule, the activity change, negative = inhibition [4] was 1.62% and the activity change, negative = inhibition [5] was 2.61%.
